In brackets after ≈: the same amount, converted by molar mass. Entries after “also recorded” stand apart in the source; their conditions may differ. At least one peptide structure holds a part that was inferred or is arguable (an end, a ring closure or a residue). For part of these data: At least one structure is not confirmed: it was looked up by name or label, or the drawing left a doubt. Bridge positions count the residues as written; N and C are the ends. Ends that are not written are not given here. Peptide text beside a SMILES is read from it. I, II: the chains in the order shown.
How the values were obtained:
Assay type in all cases: cell-based
E. coli (ATCC No. 25922) = settings: 18 hours incubation
Description: Microbes were re-constituted from their dried pellets obtained from ATCC according to the recommended protocols. Bacterial culture was done in tryptic soy broth at 37° C., while yeast was cultured in yeast mould broth at room temperature, under constant shaking at 100 rpm. Briefly, microbial suspension was first adjusted to contain ˜3×10^8 CFU/mL, by adjusting its 600 nm absorbance to be equivalent to that of the standard McFarland 1 reference. The suspension was then diluted to contain ˜3×10^6 CFU/mL. Under this condition, the O.D. reading was approximately 0.05-0.06 for bacterial cultures, and 0.03-0.04 for yeast cultures. Equal volume (100 μL) of the microbial suspension and the peptide solutions was mixed in a 96-well plate, and the microbial growth was monitored by measuring the O.D. reading at 0 and 18 hours.

B. subtilis [1] = settings: 8 hours incubation, tryptic soy broth, 37° C.
Description: (§1) Microbial cells were firstly re-constituted from its lyophilized form according to the manufacturer's protocol. Bacterial cells were cultured in tryptic soy broth (TSB) at 37° C., and yeast cells were cultured in yeast mould broth (YMB) at room temperature under constant shaking at 100 rpm. Broth containing an antimicrobial peptide was prepared at various concentrations (0.98, 1.95, 3.90, 7.81, 15.63, 31.25, 62.5, 125, 250, 500 mg/L) and transferred into a 96-well tissue culture plate (100 μL/well). Microorganism was first inoculated overnight to enter its log growth-phase. An equal volume of microorganism solution (100 μL) was added into each well of the 96-well plate containing the antimicrobial peptide. Prior to this mixing, the concentration of microorganism solution was adjusted to give an initial optical density (O.D.) reading of 0.1-0.2 at 600 nm wavelength. The growth of the microorganism was observed upon introducing the antimicrobial peptide by measuring the O.D. readings at 2 hour intervals for up to 8 hours. […] Broth containing microbial cells was used as the negative control, and each test was carried out in 6 replicates. The standard deviations of the 6 readings were reported as the error bars.

C. albicans = settings: 8 hours incubation, yeast mould broth, room temperature
Description: as §1

B. subtilis [2] = experiment: FE-SEM analysis of bacterial cell membranes; settings: 50 mg/L, 10 minutes

Row | Molecule | MIC E. coli (E. coli (ATCC No. 25922)) | MIC B. subtilis (B. subtilis [1]) | MIC C. albicans (C. albicans) | membrane damage of B. subtilis (SEM), short treatment (B. subtilis [2])
1 | CC(C)C[C@H](NC(=O)[C@H](CC(C)C)NC(=O)[C@H](CCCCN)NC(=O)[C@H](CCCCN)NC(=O)[C@H](CC(C)C)NC(=O)[C@@H](N)CC(C)C)C(=O)N[C@@H](CCCCN)C(=O)N[C@@H](CCCCN)C(=O)NCCCC[C@H](NC(=O)[C@H](CCCCN)NC(=O)[C@H](CCCCN)NC(=O)[C@H](CC(C)C)NC(=O)[C@H](CC(C)C)NC(=O)[C@H](CCCCN)NC(=O)[C@H](CCCCN)NC(=O)[C@H](CC(C)C)NC(=O)[C@@H](N)CC(C)C)C(=O)N[C@@H](CS)C(N)=O [[(LLKK)2]2, [LLKKLLKK]2K*C—CONH2] (I: H-LLKKLLKKKC-NH2 / II: H-LLKKLLKK; amide I:9-II:C) | 31 µg/mL (≈ 14.2 µM) |  |  | 
2 | CC(C)C[C@H](NC(=O)[C@H](CC(C)C)NC(=O)[C@H](CCCCN)NC(=O)[C@H](CCCCN)NC(=O)[C@H](CC(C)C)NC(=O)[C@@H](N)CC(C)C)C(=O)N[C@@H](CCCCN)C(=O)N[C@@H](CCCCN)C(=O)NCCCC[C@H](NC(=O)[C@H](CCCCN)NC(=O)[C@H](CCCCN)NC(=O)[C@H](CC(C)C)NC(=O)[C@H](CC(C)C)NC(=O)[C@H](CCCCN)NC(=O)[C@H](CCCCN)NC(=O)[C@H](CC(C)C)NC(=O)[C@@H](N)CC(C)C)C(=O)N[C@@H](CSSC[C@H](NC(=O)[C@H](CCCCNC(=O)[C@H](CCCCN)NC(=O)[C@H](CCCCN)NC(=O)[C@H](CC(C)C)NC(=O)[C@H](CC(C)C)NC(=O)[C@H](CCCCN)NC(=O)[C@H](CCCCN)NC(=O)[C@H](CC(C)C)NC(=O)[C@@H](N)CC(C)C)NC(=O)[C@H](CCCCN)NC(=O)[C@H](CCCCN)NC(=O)[C@H](CC(C)C)NC(=O)[C@H](CC(C)C)NC(=O)[C@H](CCCCN)NC(=O)[C@H](CCCCN)NC(=O)[C@H](CC(C)C)NC(=O)[C@@H](N)CC(C)C)C(N)=O)C(N)=O [[(LLKK)2]4, [LLKKLLKK]2K*C—S—S—CK*[KKLLKKLL]2] (I: H-LLKKLLKKKC-NH2 / II: H-LLKKLLKKKC-NH2 / III: H-LLKKLLKK / IV: H-LLKKLLKK; amide I:9-III:C, II:9-IV:C; disulfide I:10-II:10) | 16 µg/mL (≈ 3.67 µM) |  |  | 
3 | FFRRFFRRFFRR-NH2 [(FFRR)3, FFRRFFRRFFRR-NH2] |  | 31.3 µg/mL | 125 µg/mL | 
4 | FFRRFFRRFFRRFFRR-NH2 [(FFRR)4, FFRRFFRRFFRRFFRR-NH2] |  | 20 µg/mL |  | 
5 | LLKKLLKKLLKK-NH2 [(LLKK)3, LLKKLLKKLLKK-NH2] |  | 31.3 µg/mL | 125 µg/mL | damage the membrane of B. subtilis; also recorded: significant extent of membrane damage on some of the bacterial cells
6 | LLKKLLKKLLKKLLKK-NH2 [(LLKK)4, LLKKLLKKLLKKLLKK-NH2] |  | 10 µg/mL |  | 
7 | LLRRLLRRLLRR-NH2 [(LLRR)3, LLRRLLRRLLRR-NH2] |  | 15.6 µg/mL | 500 µg/mL | 
8 | LLRRLLRRLLRRLLRR-NH2 [(LLRR)4, LLRRLLRRLLRRLLRR-NH2] |  | 10 µg/mL |  | 

— US9234004B2, “Antimicrobial peptides” (Agency for Science, Technology and Research, priority 2010, dated 2016)
